The text below walks through data of publication PMC6919601, “Identification of Plasmodium dipeptidyl aminopeptidase allosteric inhibitors by high throughput screening” (PLoS ONE, 2019).

The whole screen tested about 110,000 compounds, of which about 230 (0.21%) showed an effect of 50% or more. This is one part of the list.
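Note: 30 min substrate incubation versus DMSO and 10 µM JCP410 controls.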

In this assay the target is DPAP1 (Plasmodium falciparum, UniProt Q8IIJ9). In words: primary screen, percent inhibition; read by cleavage of a fluorogenic dipeptide substrate; higher = more effect of the substance. Further details: species or system P. falciparum D10 trophozoite lysates; single well.
DPAP1, sequence (Q8IIJ9 whole entry, looked up): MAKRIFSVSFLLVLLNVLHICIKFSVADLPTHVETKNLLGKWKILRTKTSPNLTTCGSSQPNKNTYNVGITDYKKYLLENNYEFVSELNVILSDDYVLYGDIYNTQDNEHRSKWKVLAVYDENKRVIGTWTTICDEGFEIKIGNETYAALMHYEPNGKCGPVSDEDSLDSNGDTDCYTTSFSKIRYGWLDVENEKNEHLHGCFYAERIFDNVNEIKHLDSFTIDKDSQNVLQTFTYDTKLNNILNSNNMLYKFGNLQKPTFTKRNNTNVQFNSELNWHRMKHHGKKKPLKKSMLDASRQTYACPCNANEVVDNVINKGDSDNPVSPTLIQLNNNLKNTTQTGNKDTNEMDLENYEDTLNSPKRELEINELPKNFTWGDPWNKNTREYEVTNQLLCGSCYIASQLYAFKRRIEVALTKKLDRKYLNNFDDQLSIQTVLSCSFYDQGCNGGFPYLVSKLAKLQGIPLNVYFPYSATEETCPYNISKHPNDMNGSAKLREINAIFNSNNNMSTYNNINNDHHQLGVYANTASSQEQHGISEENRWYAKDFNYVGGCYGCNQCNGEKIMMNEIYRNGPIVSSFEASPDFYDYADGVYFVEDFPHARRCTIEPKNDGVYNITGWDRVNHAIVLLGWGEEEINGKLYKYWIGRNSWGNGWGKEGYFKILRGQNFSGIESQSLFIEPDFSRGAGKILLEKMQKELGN
On to `N#Cc1c(C(F)(F)F)cc(-c2cccs2)nc1SCc1ccncc1`, for which the “% Inhibition @ 10 uM” value is recorded as 57.7%.
Turning to `C=CCN1C(=O)N/C(=C/c2ccc(-c3cccc(F)c3)o2)C1=O`, the “% Inhibition @ 10 uM” value was -15.4%.
With `CC(C)(O)CC1[C@@]2(C)CCCC(C)(C)C2CC[C@@]1(C)O` (stereo partly drawn), the “% Inhibition @ 10 uM” value was -1.15%.
For `CC(=O)OCC1C[C@@H]1c1ccccc1` (stereo partly drawn) the value was 1.41%; for `COc1ccc(Cn2nnc3c(O)nc(C4CCN(S(=O)(=O)c5ccc(C)cc5)CC4)nc32)cc1`, 3.81%.
In the case of `Brc1ccc(NCc2ccncc2)cc1`, the “% Inhibition @ 10 uM” value is -0.197%.
As for `Brc1ccccc1OCCCCn1ccnc1`, the “% Inhibition @ 10 uM” value is -2.12%.
For the compound `Cc1c(C(=O)NCCCOC(C)C)oc2c1-c1nn(Cc3cccc(Cl)c3)cc1CC2`, the “% Inhibition @ 10 uM” value is 16.2%.
For `CCOc1ccc(CCNC(=O)C2CCC(=O)N2C2CCCCC2)cc1OCC` (stereo not drawn) the value was -1.79%; for `CC1C2CC(C(S(=O)(=O)N3CCOCC3)/C2=N/O)C1(C)C` (stereo not drawn), -4.26%; for `COc1ccc(C=C(C#N)C#N)cc1OC`, 3.16%.
Consider `CC(=O)NCCc1nc2ccccc2n1Cc1ccccc1C`, for which the “% Inhibition @ 10 uM” value was -2.74%.
For `CC1CCN(S(=O)(=O)c2ccc3ncc(C(=O)NCc4ccccc4Cl)c(O)c3c2)CC1` the value was -1.46%.
For the compound `O=C(NC1CCCCCC1)c1c(O)nc2ccccc2c1O`, the “% Inhibition @ 10 uM” value is reported as -2.17%.
In the case of `Cc1cc(C)c2c(N)c(C(=O)NCCc3ccccc3)sc2n1`, the “% Inhibition @ 10 uM” value was found to be 33.6%.
As for `COCC(C)NC(=O)c1cc(-c2ccc(OC)c(OC)c2)on1` (stereo not drawn), the “% Inhibition @ 10 uM” value was -7.85%.
With `CC(C)C[C@H](NC(=O)c1ccsc1)C(=O)NCC#N`, the “% Inhibition @ 10 uM” value turned out to be 0.174%.
Consider `Cc1ccc(C(=O)N/C(=C\c2ccco2)C(=O)N2CCN(Cc3ccccc3)CC2)cc1C`, for which the “% Inhibition @ 10 uM” value is -0.941%.
In the case of `CCCC(=O)N(c1ccc2oc(C)c(C(C)=O)c2c1)S(=O)(=O)c1ccc(OC)cc1`, the “% Inhibition @ 10 uM” value is recorded as -4.53%.
With `CCCC(C)C(=O)Nc1cc(OC)ccc1OC` (stereo not drawn) the figure was -8.26%; with `C/C(Cl)=C/Cn1c(SCCc2ccccc2)nc2c1c(=O)[nH]c(=O)n2C`, 4.7%; with `COc1cc(C2NCCc3cc(OC)c(OC)cc32)ccc1O` (stereo not drawn), -5.5%.
`COc1ccc(C(=O)NCCCCc2ccccc2)cc1`: the “% Inhibition @ 10 uM” value is -12.4%.
For `N=C(NOC(=O)N1CCOCC1)c1cccnc1` the value was -3.28%; for `Cc1nn(-c2ccccc2)c(Cl)c1/C=C1/C(=N)N2C(c3ccccc3)=CSC2=NC1=O`, 4.74%; for `O=C(CN(C1CCCCC1)S(=O)(=O)c1ccc(Br)cc1)N1CCCC1`, -7%.
For the compound `O=C(O)CCC1CCC(=O)N1` (stereo not drawn), the “% Inhibition @ 10 uM” value is 3.38%.
For `Cc1cccnc1NC(=O)C1c2ccccc2C(=O)N(CC(C)C)C1c1cccs1` (stereo not drawn) the value was 1.69%; for `CCOC(=O)NC1(C(F)(F)F)C(=O)Nc2c1c(=O)[nH]c(=O)n2CCc1ccccc1` (stereo not drawn), 2.1%.
On to `O=C(c1ccc(Cl)cc1Cl)N1CCN(C/C=C/c2ccccc2)CC1`, for which the “% Inhibition @ 10 uM” value is reported as -3.03%.
As for `Clc1ccc(Cn2nnc(-c3ccccc3Cl)n2)c(Cl)c1`, the “% Inhibition @ 10 uM” value is -3.14%.
With `COc1cc(OC)c(C(C)=O)c(OCc2ccccc2)c1Br` the figure was -0.0925%; with `Cc1sc(NC(=O)c2ccccc2)c(CN2CC(C)OC(C)C2)c1C` (stereo not drawn), -0.884%; with `CSc1ccc(CCNC(=O)Cn2nc(C)c3c(C)n(-c4ccc(C)cc4)nc3c2=O)cc1`, -3.43%.
With `Cc1ccc(C2=NC(=O)C(NC(=O)c3ccc(F)cc3)(C(F)(F)F)N2)cc1` (stereo not drawn) the figure was -0.891%.
Consider `CC(Oc1ccc(Cl)cc1Cl)C(=O)Nc1ccccc1C#N` (stereo not drawn), for which the “% Inhibition @ 10 uM” value is listed as 2.76%.
With `COc1ccc(N(CC(=O)Nc2cccc(Cl)c2C)S(=O)(=O)c2ccccc2)cc1` the figure was 3.06%.
Regarding `COC(=O)/C(C#N)=C/c1c(Oc2ccc(C(C)(C)C)cc2)nc2c(C)cccn2c1=O`, the “% Inhibition @ 10 uM” value amounted to 2%.
With `CC(C)CCN1Cc2ccccc2C1`, the “% Inhibition @ 10 uM” value is listed as -7.35%.
Take `COc1ccc(S(=O)(=O)Nc2nc3c(s2)C(=O)CC(C)(C)C3)cc1`: the “% Inhibition @ 10 uM” value is recorded as -0.123%.
With `Cc1c(C(=O)Nc2cccc(Cl)c2)cnn1-c1ccccc1` the figure was -2.32%; with `CCC[C@H](NC(=O)C1(NC(=O)c2cc3ccccc3o2)CCCCC1)C(=O)c1nc2ccccc2o1`, 3.19%.
For `COc1ccc2c(c1)CCc1sc(NC(=O)c3ccc(C)cc3)nc1-2` the value was -0.0735%; for `O=C(Nc1ccc2c(c1)OCCO2)c1ccc(CNS(=O)(=O)c2cccc(C(F)(F)F)c2)cc1`, 0.161%; for `O=C(O)Cn1nc2c3c(cccc3c1=O)-c1ccccc1-2`, -3.23%.
Turning to `CCOc1ccccc1NC=C1C(=O)N(C)C(=O)N(C)C1=O`, the “% Inhibition @ 10 uM” value was -4.41%.
With `CCOc1nc(-c2ccccc2)cc(-c2ccc(Br)cc2)n1`, the “% Inhibition @ 10 uM” value was -1.5%.
For `CC(C)C(NS(=O)(=O)c1cccc(C(=O)O)c1)C(=O)O` (stereo not drawn) the value was 17.1%; for `CCOC(=O)C1=C(C)N=c2s/c(=C/c3ccccc3Cl)c(=O)n2C1c1ccccc1Cl` (stereo not drawn), 3.48%.
Consider `COCC(C)NCc1ccc(OC)cc1` (stereo not drawn), for which the “% Inhibition @ 10 uM” value is recorded as -5.16%.
`C=CCN1C(=O)C(NC(=O)c2ccccc2)(C(F)(F)F)N=C1Cc1ccccc1` (stereo not drawn): the “% Inhibition @ 10 uM” value is on record as 2.31%.
